According to PMC6919601, “Identification of Plasmodium dipeptidyl aminopeptidase allosteric inhibitors by high throughput screening” (PLoS ONE, 2019):
The campaign covered roughly 110,000 compounds. About 230 (0.21%) showed an effect of 50% or more. Some of the results follow.

target: DPAP1 (Plasmodium falciparum, UniProt Q8IIJ9); assay: primary screen, percent inhibition; read by cleavage of a fluorogenic dipeptide substrate; higher = more effect of the substance; parameters: species or system P. falciparum D10 trophozoite lysates; single well
Sequence (Q8IIJ9 whole entry, looked up): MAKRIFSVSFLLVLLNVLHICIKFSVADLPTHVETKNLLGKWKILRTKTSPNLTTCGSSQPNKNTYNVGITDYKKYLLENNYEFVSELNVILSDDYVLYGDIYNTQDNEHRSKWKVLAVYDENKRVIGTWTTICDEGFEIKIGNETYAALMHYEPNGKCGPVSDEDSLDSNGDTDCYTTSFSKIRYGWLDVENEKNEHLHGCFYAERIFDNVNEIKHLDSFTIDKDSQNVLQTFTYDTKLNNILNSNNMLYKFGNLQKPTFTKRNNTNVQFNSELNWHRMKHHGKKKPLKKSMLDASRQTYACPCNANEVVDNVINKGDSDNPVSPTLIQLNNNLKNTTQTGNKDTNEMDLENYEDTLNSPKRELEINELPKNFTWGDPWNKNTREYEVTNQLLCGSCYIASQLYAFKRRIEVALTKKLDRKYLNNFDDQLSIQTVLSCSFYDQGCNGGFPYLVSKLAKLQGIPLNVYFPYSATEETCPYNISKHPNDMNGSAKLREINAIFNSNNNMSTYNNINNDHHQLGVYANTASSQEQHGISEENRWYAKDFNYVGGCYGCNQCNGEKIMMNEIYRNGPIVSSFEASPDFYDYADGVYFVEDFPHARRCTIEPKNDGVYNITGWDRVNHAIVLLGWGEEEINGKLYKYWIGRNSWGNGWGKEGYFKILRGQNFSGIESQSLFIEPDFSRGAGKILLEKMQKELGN
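Note: 30 min substrate incubation versus DMSO and 10 µM JCP410 controls.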

Row | Compound | % Inhibition @ 10 uM [%]
1 | CC(C)CCn1c(CN2CCCCC2)nc2c1c(=O)n(C)c(=O)n2C | 1.79
2 | Cc1nc(SCC(=O)Nc2ccccc2)c(C#N)c(C)c1C | 0.76
3 | Cc1ccc(OCCn2c(Br)nc3c2c(=O)n(C)c(=O)n3C)cc1 | 6.07
4 | CCC(Cc1ccccc1)NC(=O)c1ccccc1 (stereo not drawn) | 4.73
5 | O=C(Nc1cc(Cl)ccc1Cl)C12CC3CC(CC(C3)C1)C2 | 1.63
6 | COc1ccccc1/C=C/c1nc(C#N)c(N(C)Cc2ccccc2)o1 | -2.57
7 | COC(=O)c1ccc(COc2ccc(-c3nnn(CC(N)=O)n3)cc2)cc1 | -4.35
8 | Cc1cc(C)c2c(n1)sc1c(=O)n(Cc3ccccc3Cl)nnc12 | 2.09
9 | CC1(C(Cl)Cl)C=CC(=O)C=C1 | 2.45
10 | CNC(=O)c1cc(C)c(-c2ccccc2)s1 | 8.71
11 | CCN1C(=O)C2(C(C#N)=C(N)OC3=C2C(=O)CCC3)c2ccccc21 (stereo not drawn) | -2.68
12 | COc1ccc(OC)c(C2NC(=O)NC(C)=C2C(=O)OCc2ccccc2)c1 (stereo not drawn) | 0.736
13 | Oc1[nH]c2ccccc2c1/C=N/c1nccs1 | 0.205
14 | Cc1cccc(C(=O)NC(C(=O)O)C23CC4CC(CC(C4)C2)C3)c1 (stereo not drawn) | -0.0619
15 | Cc1ccc(C2=NS(=O)(=O)N(C)C(C(=O)NCc3ccc(F)cc3)=C2)cc1 | -4.68
16 | COc1ccc(C(=O)Nc2cccc(C)c2C)c(OC)c1 | -4.15
17 | c1ccc(-c2csc3nnc(SCc4ccc5c(c4)OCO5)n23)cc1 | 0.778
18 | CCC(C)NC(=O)CN(Cc1ccccc1)S(=O)(=O)c1ccc(Cl)cc1 (stereo not drawn) | -9.18
19 | CC(C)CCOc1ccc(CSCCCN=C(N)N)cc1 | -1.91
20 | COc1ccc(N(CC(=O)N2CCCC2)S(=O)(=O)c2ccccc2)cc1Cl | -1.68
21 | Cc1cc2c(c(S)n1)C(=O)O/C2=C\c1c[nH]nc1-c1cccs1 | 43.6
22 | CC(C)NS(=O)(=O)c1ccc(OCC(=O)Nc2ccc(Cl)c(Cl)c2)cc1 | 3.35
23 | Cc1ccc(C(C)C)c(OCCCn2c(CO)nc3ccccc32)c1 | -4.07
24 | Cc1nc(CC(=O)Nc2sc3c(c2C(N)=O)CCC(C)C3)cs1 (stereo not drawn) | 8.49
25 | Cc1ccc(C(C)(C)C)c(OCC(=O)NCc2ccco2)c1 | -1.49
26 | O=C(Cn1cnc2ccccc2c1=O)Nc1ccc2ccccc2c1 | 0.674

Row | Compound | % Inhibition @ 10 uM [%]
27 | Cc1cc(-c2[nH]nc3c2C(c2ccccc2Cl)C(C#N)=C(N)O3)c(C)s1 (stereo not drawn) | -0.99
28 | COCCCNC(=O)c1c(NC(=O)c2nc(SC)ncc2Cl)sc2c1CCCC2 | -2.85
29 | CC(C)(C)NC(=O)C1CCC(C/N=c2/c(N3CCCCC3)c(O)c2=O)CC1 (stereo not drawn) | 1.22
30 | CC(C)OCCCn1c(=O)c2ccccc2n2c(CCC(=O)NC(C)c3ccccc3)nnc12 (stereo not drawn) | -1.44
31 | COc1ccc(NC2=C(Cl)C(=O)N(c3ccccc3C)C2=O)c(OC)c1 | 1.08
32 | Fc1ccc(-c2nsc3c(N4CCCC4)ncnc23)cc1 | 0.758
33 | CCCN(C(=O)c1cccc(OC)c1)c1nc(-c2ccccc2)cs1 | -2.7
34 | Nc1ccc2oc(-c3ccc4ccccc4c3)nc2c1 | 4.57
35 | NCCc1n[nH]c(Cc2ccccc2)n1 | -2.72
36 | CCOc1ccc(CNC(=O)c2cc3cc4cc(OC)ccc4nc3s2)cc1 | 2.28
37 | O=C(COc1ccc(S(=O)(=O)N2CCCC2)cc1)N1CCN(c2ccccc2)CC1 | -1.61
38 | COc1ccc(OCC(=O)N2CCN(c3ccccc3OC)CC2)cc1 | 1.67
39 | CC1=C(C(=O)Nc2ccc(F)cc2)C(c2ccccn2)C2=C(O)CC(C)(C)CC2=N1 (stereo not drawn) | -4.48
40 | COc1ccc(CN2C(=O)c3nccnc3C2=O)cc1 | -6.67
41 | CCn1cc2c(c1-c1ccccc1)c(=O)n(C)c(=O)n2C | -1.52
42 | C/C(=N\[C@@H](CC1(C)CCCC1)C(=O)NCC#N)NS(=O)(=O)c1ccccc1 | 5.94
43 | CCCNC(=O)c1ccc(-n2c(C)cc3c2CCC(C)C3)cc1 (stereo not drawn) | 7.46
44 | COc1ccc(CCNC(=O)CCS(=O)(=O)c2ccc3nc(C)sc3c2)cc1OC | -5.26
45 | COc1cc(CCC(=O)Nc2cccnc2)cc(OC)c1OC | 1.88
46 | O=C(NC(=S)N1CCOCC1)c1cccs1 | -5.62
47 | O=P(O)(CNc1ccccc1O)c1ccccc1 | -0.687
48 | COc1ccc(NCc2ccncc2)cc1 | -1.38
49 | CCSc1n[nH]c2nc3nc4c(C)cccc4c-3nn12 | 7.26
50 | Cc1cc(C)c(Cn2c3ccccc3c3cnn(CC(=O)NC4CC4)c(=O)c32)c(C)c1 | -1.8
51 | COc1cc(C(=O)N2CCC(C(=O)O)CC2)cc(OC)c1OC | 1.52
52 | O=S(=O)(c1cccc2nonc12)N1CCC2(CC1)OCCO2 | -4

Row | Compound | % Inhibition @ 10 uM [%]
53 | COc1ccc2sc3c(O)nc4ccccc4c3c2c1 | 1.88
54 | Cc1sc(NC(=O)c2cccc(Br)c2)c(C(N)=O)c1C | 3.69
55 | CN(C)c1nc(N)nc(COC(=O)c2ccc(-n3nnc(Cc4ccccc4F)n3)cc2)n1 | -4.04
56 | COc1ccccc1/C=C/C1=NC(=C\c2cccc(F)c2)/C(=O)O1 | 17
57 | O=C1c2cccc3cccc(c23)C(=O)N1CCC(=O)n1cnc2ccccc21 | 0.147
58 | COc1ccc(Cl)cc1NC(=O)C1CCCN1S(=O)(=O)c1ccc(Cl)cc1 (stereo not drawn) | 4.41
59 | O=C(NCCCN1CCOCC1)c1cc(-c2ccncc2)nc2ccccc12 | -2.26
60 | Cc1cccc(NC(=O)c2sc3nc(C)cc(C)c3c2N)n1 | -6.43
61 | O=C(Nc1cc([N+](=O)[O-])ccc1Cl)c1ccc([N+](=O)[O-])o1 | 5.43
62 | CC(C)CSc1nc(N)c2c3c(sc2n1)CCC3 | 81.4
63 | COc1cc(OC)c(CN2CCN(Cc3ccccc3)CC2)cc1Br | -2.56
64 | Cc1oc(-c2ccccc2Cl)nc1CSCC(=O)NCc1ccc2c(c1)OCO2 | 0.689
65 | CC(=O)NCCOc1nc(N2CCOCC2)nc(N2CCOCC2)n1 | 0.401
66 | COc1cccc(CNc2nc3c(-c4cccc(C(F)(F)F)c4)nnn3c3ccccc23)c1 | -8.42
67 | CC1=C(C(=O)Nc2cccnc2)C(c2cccc(O)c2)n2nc(SCc3ccccc3)nc2N1 (stereo not drawn) | -7.43
68 | Cc1ccc(-c2cc(NC(=O)C(C)C)on2)cc1 | -3.24
69 | N#Cc1c(-c2cccs2)cc(-c2ccccc2)nc1SCC(=O)NC1CC1 | 3.19
70 | C=CCOc1ccc(C2CC(=O)OC3=C2C(=O)CC(C)(C)C3)cc1 (stereo not drawn) | -5.96
71 | FC(F)(F)c1cccc(N2CCN(Cc3ccoc3)CC2)c1 | 5.42
72 | COc1ccc(/C=C/C(O)=C2C(=O)c3ccccc3C2=O)cc1 | -3.98
73 | NC(=O)COc1ccc(C2c3c(oc4ccccc4c3=O)C(=O)N2c2nncs2)cc1 (stereo not drawn) | -6.94
74 | O=C(O)c1cc(C23CC4CC(CC(C4)C2)C3)nc2ccc(Br)cc12 | 12
75 | Cc1ccc(NC(=O)c2cccc([N+](=O)[O-])c2)cc1Cl | -4.5
76 | CCc1nc2cccnc2n1-c1ccc(CC(=O)NCc2ccco2)cc1 | -0.0668
77 | O=C(O)C1Cc2c([nH]c3ccccc23)C(c2ccccc2Br)N1 (stereo not drawn) | -8.11
78 | COc1ccc(S(=O)(=O)NCCSCc2cccc(C)c2)cc1OC | -1.33

Row | Compound | % Inhibition @ 10 uM [%]
79 | CN1C(=O)CC(N2CCN(c3ccc(F)cc3)CC2)C1=O (stereo not drawn) | -0.268
80 | C=Cc1ccc(Cn2c(C)c(CNCCc3ccccc3OC)c(C(=O)O)c2C)cc1 | 1.41
81 | Cc1ccc(/C=C2/C(=O)c3ccc(C(=O)O)cc3C2=O)o1 | 5
82 | COc1ccc(-c2noc(CSc3nnc(-c4ccncc4)n3CC(C)C)n2)cc1OC | -0.45
83 | Cc1nnc(NC(C)C)c2c1nnn2Cc1ccc(F)cc1 | 0.00706
84 | CCOCCCNC(=O)c1ccc(CS(=O)(=O)c2ccccc2OC)o1 | -1.28
85 | Cc1ccc(C)c(CN2CCCN(c3ncnc4onc(-c5ccc(F)cc5)c34)C2)c1 | 0.0057
86 | Nc1sc2c(c1C(=O)c1ccccc1)CCCC2 | 21.4
87 | C=CCn1c(-c2ccccc2)cs/c1=N\c1ccc(O)cc1 | -2.99
88 | COC(=O)C1=C(N)OC2=C(C(=O)CCC2)C1c1cccnc1 (stereo not drawn) | 18.5
89 | Cc1ccc(-c2nc3ccccc3[nH]2)cn1 | 3.01
90 | O=C(Cn1ncn2c(cc3ccccc32)c1=O)NCCCc1ccccc1 | 0.0198
91 | CCOc1cc(Cl)c(S(=O)(=O)N2CCN(C)CC2)cc1Cl | -1.51
92 | COC(=O)c1[nH]c2c(c1C)C(=O)CC(c1ccccc1)C2 (stereo not drawn) | 6.28
93 | O=C(O)c1cccc2c1-c1ccccc1C2=O | -8.6
94 | COc1cc(C2C(C#N)=C(N)OC3=C2C(=O)CC(C)(C)C3)ccc1OCC(N)=O (stereo not drawn) | 2.56
95 | COc1cccc(C2C3=C(NCCN=C3c3ccccc3)C(=O)N2c2ccccc2)c1 (stereo not drawn) | 1.67
96 | Cc1nc2ncnn2c(O)c1NC(=O)CCc1ccccc1 | 2.97
97 | OCC1CCCN(Cc2ccc(-c3ccccc3)cc2)C1 (stereo not drawn) | 0.273
98 | O=C(CC1(O)C(=O)N(Cc2cccc3ccccc23)c2ccccc21)c1ccccc1O (stereo not drawn) | -4.68
99 | COc1ccccc1[C@@H](C)C[C@H](NC(=O)OC(C)(C)C)C(=O)NCC#N | -4.82
100 | Nc1ncn(C(=O)c2ccccc2)n1 | 2.09
101 | CC(C)(Cc1nc2ccccc2[nH]1)c1nc2ccccc2[nH]1 | 4.94
102 | CCCC/C(=N\c1ccccc1O)C1=C(O)CC(C)(C)CC1=O | -5.07
